“And” between values parts separate entries of the source, which are not always exact repeats. Equal entries are not always repeated. Among all 16,000 compounds or so, about 40 (0.2%) were called active. Not shown: some 1% with an inconclusive outcome. Calls come from the whole dose curve; as a rule, active = well fitted activation curve with a large enough effect; inconclusive = small, poorly fitted or top-dose-only effect, or another doubt; inactive = no such curve, though single readings can be large or run the other way. Some of the results follow.
target: Rap guanine nucleotide exchange factor 4 (Homo sapiens) (UniProt Q8WZA2); assay: Validation qHTS for agonist of cAMP-regulated guanine nucleotide exchange factor 4 (EPAC2); conditions: EPAC2 Rap1B BODIPY-GDP exchange, fluorescence; activation: stronger effect = higher value;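 note: exchange makes BODIPY-GDP fluorescence drop when released from Rap1B; series mostly up to about 150 µM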
In short: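 Signal normalized against 6.5 mM cAMP as agonist control. Mix of EPAC2 (100 nM), RAP1B-BODIPY-GDP (250 nM) and GDP (50 uM) was read kinetically at 480/540 nm, every 5 min over 30 min, after 5 min room-temperature incubation with compound.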
% is set by controls: 0 for no effect and ±100 for the full control effect.

Chain of UniProt Q8WZA2 (Q8WZA2 whole entry, looked up): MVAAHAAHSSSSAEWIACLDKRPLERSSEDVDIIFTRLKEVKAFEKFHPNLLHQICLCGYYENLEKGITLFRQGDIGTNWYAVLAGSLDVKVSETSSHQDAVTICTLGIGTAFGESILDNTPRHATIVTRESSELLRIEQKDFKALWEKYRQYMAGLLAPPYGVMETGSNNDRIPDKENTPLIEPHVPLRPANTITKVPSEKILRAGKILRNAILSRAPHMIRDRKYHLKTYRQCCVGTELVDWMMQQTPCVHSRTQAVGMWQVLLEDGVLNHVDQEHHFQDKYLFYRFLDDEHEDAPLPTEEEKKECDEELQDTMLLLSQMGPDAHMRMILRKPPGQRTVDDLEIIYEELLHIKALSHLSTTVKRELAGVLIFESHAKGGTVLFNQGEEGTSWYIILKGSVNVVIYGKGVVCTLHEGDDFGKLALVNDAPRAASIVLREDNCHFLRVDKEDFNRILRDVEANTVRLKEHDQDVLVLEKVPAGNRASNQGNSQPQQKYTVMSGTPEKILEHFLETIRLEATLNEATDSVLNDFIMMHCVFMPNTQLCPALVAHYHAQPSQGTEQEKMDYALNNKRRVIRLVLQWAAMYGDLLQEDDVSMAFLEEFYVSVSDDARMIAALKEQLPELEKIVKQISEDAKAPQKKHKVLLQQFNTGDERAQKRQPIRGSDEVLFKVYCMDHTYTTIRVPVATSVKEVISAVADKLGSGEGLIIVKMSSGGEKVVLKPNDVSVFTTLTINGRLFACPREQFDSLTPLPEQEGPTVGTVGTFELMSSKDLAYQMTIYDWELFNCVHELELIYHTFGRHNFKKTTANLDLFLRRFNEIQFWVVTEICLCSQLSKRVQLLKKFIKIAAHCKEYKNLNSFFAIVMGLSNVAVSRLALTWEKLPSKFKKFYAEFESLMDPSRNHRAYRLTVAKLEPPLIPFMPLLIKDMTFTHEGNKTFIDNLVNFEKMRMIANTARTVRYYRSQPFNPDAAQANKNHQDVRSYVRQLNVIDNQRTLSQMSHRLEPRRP

activation, inactive:
CC(CNC(=O)c1cccnc1)NC(=O)c1cccnc1 (configuration not stated) -6.69%, CC(C)C1=CC2=CCC3[C@@](C)(CCC[C@@]3(C)C(=O)O)C2CC1 (some centres not stated) -18.3%, O=C(C[n+]1ccccc1Cl)c1cccc([N+](=O)[O-])c1 3.13%, CC(C)SC(=N)N -9.4%, CC(C)CN1CCC(=O)N([C@H](CO)c2ccccc2)CC1 -27.1%, COc1ccc2[nH]cc(CCNc3cc(-c4ccccc4OC)ncn3)c2c1 9.65%, Cc1noc(C)c1-c1ccc2ncnc(NCc3cccnc3)c2c1 -6.34%, O=c1c(-c2cc(F)cc(F)c2)nc2cncnc2n1Cc1ccccc1 -2.9%, CC[C@]12CCCN3CCc4c(n(c5ccccc45)C(=O)C1)[C@H]32 -1.18%, CS(=O)(=O)N1CCC2(CC1)CN(c1ccncc1)C2 -5.96%, O=C(O)CCC(=O)c1ccc(-c2ccccc2)cc1 0.806% and 7.99%, COc1cc(=O)n2c(c1C(=O)NC(C)c1ccco1)CCN(Cc1ccc3nsnc3c1)CC2 (configuration not stated) -5.03%, CCNc1ncc2nc(-c3cc(F)cc(F)c3)c(=O)n(C)c2n1 -15.9%, COc1ccc(CN2Cc3cccc4c3[C@@H](CC2=O)[C@H](O)[C@H](O)C4)cc1 -11.8%, Cc1ccc(C2(O)CCN(CCCC(=O)c3ccc(F)cc3)CC2)cc1 -13.8%, COc1ccc(/C=C/C(=O)O)cc1 -15.7%, COc1ccc(-c2coc3cc(O)ccc3c2=O)c(OC)c1 -12.6%, O=C(c1cnccn1)N1CCC2(CC1)CN(c1cccc(-c3ccccc3)c1)C2 -12.6%, Cc1cc(-c2cc(F)cc3c2OC(CNC(=O)CCn2cncn2)C3)ccc1F (configuration not stated) 3.89%, COc1ccc(C(=O)N2CCC[C@@]3(CCN(c4ccncc4)C3)C2)cc1 -3.22%, N[C@@H](Cc1ccc(O)c(O)c1)C(=O)O -8.02% and -36.6%, O=C1NC2CCCCN2C12CCN(CCCN1c3ccccc3CCc3ccc(Cl)cc31)CC2 (configuration not stated) -12.9%, CC(=O)Nc1cc(C(=O)N2CCCC(C)C2)cc2ncn(CCc3ccccn3)c12 (configuration not stated) -14.3%, C[C@@H]1[C@H](c2ccccc2)OCCS(=O)(=O)N1Cc1ccccc1F -33.6%, CCCCc1ncc(/C=C(\Cc2cccs2)C(=O)O)n1Cc1ccc(C(=O)O)cc1 -7.29%, CCC(C)C(NC)C(=O)O (configuration not stated) -5.09%, O=C1NC(=O)C(Cc2ccccc2F)(C2CCN(Cc3cccn3-c3cccnc3)CC2)N1 (configuration not stated) 4.58%, [N-]=[N+]=Nc1nc2c(N)ncnc2n1C1OC(CO)C(O)C1O (configuration not stated) 4.18%, CN1CCN2c3ccccc3Cc3ccccc3C2C1 (configuration not stated) -11.6% and -18.1% and -3.85%, COC1OC2COC(c3ccccc3)OC2C(O)C1O (configuration not stated) 11.4%, CN(C)C(=O)c1ccc(-c2ccc3ncnc(N4CCC(C(=O)O)CC4)c3c2)cc1 -10.4%, O=C(c1ccco1)N1CCC[C@@]2(CCN(C(c3ccccc3)c3ccccc3)C2)C1 -23.6%, CN(C)C(=O)CCC(=O)NCC1Cc2cccc(-c3ccccc3C(F)(F)F)c2O1 (configuration not stated) -9.97%, COc1ccc(C(=O)N2CCC3(CCCN(C(=O)Nc4cccc(F)c4)C3)CC2)cc1 -8.61%, CCCCCCCCOc1ccccc1C(=O)Nc1ccc(C(=O)OCC[N+](C)(CC)CC)cc1 3.73%, COCc1c(C(=O)NC2CCCCCC2)cnn1-c1nccc(-c2cc(C)sc2C)n1 -0.549%, C[C@H](CCC(=O)O)[C@H]1CC[C@H]2[C@@H]3C(=O)C[C@@H]4CC(=O)CC[C@]4(C)[C@H]3CC(=O)[C@]12C -16.8%, COc1cccc(Nc2ncc3nc(CCc4ccccc4)c(=O)n(C)c3n2)c1 -21.6%, CO[C@H]1C[C@H](O[C@@H]2/C(C)=C/C[C@@H]3C[C@@H](C[C@]4(CC[C@H](C)[C@@H](C5CCCCC5)O4)O3)OC(=O)[C@@H]3C=C(C)/C(=N/O)[C@H]4OC/C(=C\C=C\[C@@H]2C)[C@]43O)O[C@@H](C)[C@@H]1O -41.8%, Cc1nc2sccn2c(=O)c1CCN1CCC(=C(c2ccc(F)cc2)c2ccc(F)cc2)CC1 -20.1% and -32.1%, Cc1cnc(CNc2ncnc3ccc(-c4c(C)noc4C)cc23)cn1 -2.53%, COCCNc1ncnc2ccc(-c3ccccc3OC)cc12 0.31%, Cc1noc(C)c1C(=O)N1CCC2(CCCN(c3ccccn3)C2)CC1 3.87%, COCC(=O)N1CCC[C@@]2(CCN(Cc3ccccc3OC)C2)C1 -8.16%, CN(C)c1ncc2ncc(=O)n(C[C@H]3CCCO3)c2n1 -12.3%, COc1cc(O)c(C(=O)O)c(O)c1 -10.1%, O=C(NCCc1nnc2n1CCN(Cc1c(F)cccc1F)CC2)c1ccco1 -16.8%, CC(=O)[C@H]1CC[C@H]2[C@@H]3C=CC4=CC(=O)CC[C@@]4(C)[C@H]3CC[C@]12C -22.5%, CCOC(=O)C1=C(C)NC(C)=C(C(=O)OC)C1c1cccc(Cl)c1Cl (configuration not stated) 19.6% and -14%, O=C(Nc1ccccc1)N[C@H]1C[C@H](C(=O)O)Nc2cc(Cl)cc(Cl)c21 -16.4%, Cc1ccnc2c(O)cccc12 -23.5%, O=C1c2c(O)ccc(O)c2C(=O)c2c(NCCNCCO)ccc(NCCNCCO)c21 6.63% and -15.7% and -34.9%, COc1cc(CN2C(=O)CC[C@@H]3CN(Cc4ccccn4)CC[C@@H]32)cc(OC)c1OC -2.22%, Cc1[nH]c2ccccc2c1/C=C/c1ccc2ccccc2n1 -18.8%, N#Cc1cccc(NC(=O)N2CCC3(CC2)CCN(C(=O)c2csnn2)CC3)c1 -25.9%, CC(=O)O[C@H]1C[C@@H]2CC[C@@H]3[C@H](CC[C@@]4(C)[C@H]3C[C@H]([N+]3(C)CCCCC3)[C@@H]4OC(C)=O)[C@@]2(C)C[C@@H]1[N+]1(C)CCCCC1 -27.8% and -30.4%, COCCn1c(=O)c(-c2ccccc2)nc2cnc(N3CCNCC3)nc21 -4.76%, CC(C(=O)O)c1ccc(C2CCCCC2)c2ccccc12 (configuration not stated) -0.78%, CN(C)c1ccc(/C=C/c2ccnc3c2ccc2ccccc23)cc1 -10%, Cc1cc(-c2ccnc(-n3ncc(C(=O)NCc4cccnc4)c3C3CC3)n2)c(C)s1 -10.3%, C[C@H](CCC(=O)NCC(=O)O)C1CC[C@H]2[C@H]3C(C[C@H](O)[C@]12C)[C@@]1(C)CC[C@@H](O)C[C@H]1C[C@H]3O (some centres not stated) 10.5%, CC(=O)Nc1ccccc1C(=O)C(=O)O -17.9%, Fc1ccc([C@H]2CCNCC2COc2ccc3c(c2)OCO3)cc1 (some centres not stated) -29.3%, CC(=O)Nc1ccc(OC[C@@H](O)CNC(C)C)cc1 -18.2%, CC(CC(O)C1OC1(C)C)C1CCC2(C)C3=CCC4C(C)(C)C(=O)CCC4(C)C3CC[C@@]12C (some centres not stated) -23.1%, O=C(NC(Cc1cc(=O)[nH]c2ccccc12)C(=O)O)c1ccc(Cl)cc1 (configuration not stated) -10.6%, COc1cc(O)cc(OC)c1OC -2.65%, CCN1C(=O)C=CC1=O -9.63%, COc1cc2nc(N(C)C)c(CNC3CCOC(C)(C)C3)cc2c(OC)c1OC (configuration not stated) -8.17%, O=C(NCc1nnc2n1CCN(Cc1cc3c(cc1Cl)OCO3)CC2)C1CCOC1 (configuration not stated) -13.2%, O=c1c(-c2cc(F)cc(F)c2)nc2cnc(Nc3ccccc3)nc2n1C[C@H]1CCCO1 -11.6%, CN1[C@@H]2CC(OC(=O)[C@H](CO)c3ccccc3)C[C@@H]1[C@H]1O[C@H]12 (some centres not stated) -17.4%, COc1ccc(OC)c(CN2CCC3(CCC(CNC(=O)c4ccco4)O3)CC2)c1 (configuration not stated) -3.79%, COCC(=O)N1CCC2(CCCN(c3ncccn3)C2)CC1 -6.18%, C=C1[C@@H]2CC[C@@H](C2)C1(C)C -40.6%, Nc1ncn(C2OC(CO)C(O)C2O)c(=O)n1 (configuration not stated) -8.91%, COC1[C@@H](O[C@@H]2O[C@H](C)[C@@H](O[C@H]3C[C@@](C)(O)[C@H](OC(=O)CC(C)C)[C@H](C)O3)[C@H](N(C)C)[C@H]2O)[C@@H](CC=O)C[C@@H](C)[C@@H](O)/C=C/C=C/C[C@@H](C)OC(=O)C[C@H]1OC(C)=O (some centres not stated) -4.09%, OC[C@H]1O[C@H](n2cnc3c(N[C@H]4CCC[C@@H]4O)ncnc32)[C@H](O)[C@@H]1O -12.4%, COc1ccc(NC(=O)N2CCCC3(CCN(C(=O)c4cccc(F)c4)CC3)C2)cc1 2.11%, CC(C)(C)NC[C@H](O)COc1cccc2c1CCCC2=O -36.5%, CCNc1ncc2nc(-c3ccc(Cl)cc3)c(=O)n(-c3ccccc3)c2n1 15.8%, C[N+](C)(C)CCOC(N)=O 20.5% and -19.1% and -12.3%
